# Measurements reported in PubChem BioAssay AID1919004 (Molecular Pharmacology Branch, DTP, NCI, 2023).
# Not every entry of the source has a single result; some have several. They are shown here; other results are not. An entry can have further records. The records of an entry repeat one measurement across runs, samples, wells, individuals or studies. Marks such as (2×) count equal records among those shown. Marks such as [2022-09] give the month of the run.
# Test system: 883617-216-R-J1-PDC complex spheroids, growth, % test/control
# Experiment: Anticancer human tumor 883617-216-R-J1-PDC patient-derived bladder carcinoma cell line growth inhibition [AhR]
# Details: for viability, T/C: stronger effect = lower value; for IC50: compound alone
# Excerpt: Multicellular complex tumor spheroid response to aryl hydrocarbon receptor antagonists in combination with a variety of drugs and investigational agents in selected tumor cell lines
# The current study was undertaken to assess response to aryl hydrocarbon receptor antagonists in combination with standard-of-care drugs and investigational agents in solid tumor complex spheroid models. Complex spheroids include a stromal component modeled by human endothelial cells (HUVEC) and fibroblasts modeled by human mesenchymal stem cells (MSCs). The concentration ranges selected for each drug and investigational agent were based upon clinically achievable concentrations if the clinical Cmax of the agent was known.
# Compounds. The drugs and investigational agents: BAY 2416964 (NSC825713), GNF351 (NSC835774), CH-223191 (NSC835775), CPI-455 (NSC825282), aza-TdCyd (NSC777586), decitabine (NSC127716), belinostat (NSC758774), entinostat (NSC756642), pevonedistat (NSC761192), tazemetostat (NSC777109), talazoparib (NSC765396), olaparib (NSC753686), selinexor (NSC780203), nedisertib (M3814, NSC802822), bortezomib (NSC756655), venetoclax (NSC766270), doxorubicin (NSC123127), elimusertib (BAY189344, NSC800525), ceralasertib (AZD6738, NSC777638), TAK-243 (NSC785004), alisertib (NSC759677), etoposide (NSC141540), topotecan (NSC609699), eribulin (NSC707389), gemcitabine (NSC613327), carboplatin (NSC241240), cisplatin (NSC119875), and SN-38 (NSC673596) were obtained from the National Cancer Institute (NCI) Developmental Therapeutics Program Chemical Repository (32). The FDA-approved anticancer drug set is available from the Developmental Therapeutics Program at https://dtp.cancer.gov/organization/dscb/obtaining/available plates.htm. […] The stock solutions were prepared in dimethyl sulfoxide (DMSO, Sigma-Aldrich, St. Louis, MO, cat. D2650), except for the platinum compounds which were prepared in saline (Quality Biological, Gaithersburg, MD, cat. 114-055-101), at 800-fold the tested concentration and stored at -70 degrees C prior to their use. All drugs and investigational agents were tested over a range starting from a high concentration at or near the clinical Cmax and decreasing in half-log increments. If the clinical Cmax for an agent had not been determined, the highest concentration tested was 10 microM (Table 1).
# Cell Culture. All cells were maintained in an incubator at 37 degrees C and 5% CO2 with 95% humidity. The PDC lines were cultured according to standard operating procedures established by the NCI PDMR (https://pdmr.cancer.gov). Briefly, all PDCs were thawed and cultured in Matrigel-coated flasks prepared with a working solution of 1X Ham's F-12 nutrient mix, without supplementation (Invitrogen, Waltham, MA, cat. 11765054), 100 U/mL penicillin-streptomycin (Invitrogen, cat. 15140122), and 2.5% Matrigel (Corning Inc., Corning, NY, cat. 354248) for the first three passages. All PDCs were cultured in complete DMEM/F-12 media containing advanced DMEM/F-12 (Invitrogen, cat. 12634028), 4.9% defined fetal bovine serum, heat inactivated (HyClone Laboratories Inc., Logan, UT, cat. SH30070.03HI), 389 ng/mL hydrocortisone (Sigma-Aldrich, cat. H4001), 9.7 ng/mL human EGF recombinant protein (Invitrogen, cat. PHG0313), 23.4 microg/mL adenine (Sigma-Aldrich, cat. A2786), 97.3 U/mL penicillin-streptomycin (Invitrogen, cat. 15140122), 1.9 mM L-glutamine (Invitrogen, cat. 25030081), and 9.7 microM Y-27632 dihydrochloride (Tocris Bioscience, Bristol, United Kingdom, cat. 1254). The PDCs were cultured in complete DMEM/F12 media without 10 microM Y-27632 dihydrochloride for at least two passages prior to the screen. The established cell lines NCI-H1341 and […] were cultured in DMEM/F-12, HEPES (Invitrogen, cat. 11330032), 5% defined fetal bovine serum (HyClone Laboratories Inc., cat. SH30070.03), ITS premix universal culture supplement [insulin (5 microg/mL), transferrin (5 microg/mL), and selenious acid (5 ng/mL)] […]
# 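Further: exposure lasted 7 days after dosing on day 3 of spheroid growth.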
smiles,measurement,setting,value
CC(C)CC(NC(=O)C(Cc1ccccc1)NC(=O)c1cnccn1)B(O)O (stereo not given),"viability, T/C",compound alone 0.00949 µM,"2.55% [2022-05] and 36.4%, 35.7% [2022-06]"
CC(CO)NC(=O)c1cc(-c2ccc(Cl)cc2)nn(-c2cnn(C)c2)c1=O (stereo not given),"viability, T/C",compound alone 0.1 µM,"106, 92.2 (2×), 105 (2×), 81.8, 76.9, 53.5, 96.5, 113 (2×), 76.1, 143, 91.6, 71.5, 108, 95.5, 64, 98.5, 77.4%"
same,"viability, T/C",compound alone 0.316 µM,"117, 106, 127, 99.2, 79.5, 74.1, 120, 90.4, 68.2, 90.8, 85.2 (2×), 100, 89.1, 84.3, 88, 107, 91.8, 113, 94, 115%"
same,"viability, T/C",compound alone 1 µM,"74.9, 101, 67, 83.7, 67.7, 56.5, 94.6, 72.6, 126, 98.2, 81.6, 96.8, 111, 87.8, 78.9, 68.2, 55.9, 99.2 (2×), 75.2, 102%"
same,"viability, T/C",compound alone 3.16 µM,"49.3, 78.3, 106 (2×), 74.5, 64.5, 86.6, 78.2, 75.5, 84.7, 72.8, 77.8, 52.1, 70.5, 84.4, 79.6, 77.1, 70.9, 57%"
same,"viability, T/C",compound alone 10 µM,"89.1, 89.8, 83.9, 68.3, 55.5, 74.7, 105, 98.8, 119, 79.3, 75.7, 85.3, 93.9, 111, 67.7, 60.8, 86.9, 64.8, 82.9%"
Nc1ccn(C2OC(CO)C(O)C2(F)F)c(=O)n1 (stereo not given),IC50,,> 10 µM [2022-05] and < 31.6 nM (2×) [2022-06]
Cc1cncc(-c2nc(NCCc3c[nH]c4ccccc34)c3ncn(C(C)C)c3n2)c1,"viability, T/C",compound alone 0.316 µM,"89.3, 79.4, 91.6, 78, 82.8, 94, 87.1, 86.4, 91.2, 86.6, 105, 84.1, 78.9, 89.7, 99.7, 96.6, 92.2, 89.6, 96.8%"
same,"viability, T/C",compound alone 3.16 µM,"111, 99.2, 97.4, 104, 91.1, 109, 101 (2×), 103 (2×), 89.6, 112, 121, 94.3, 94.1, 98.9, 102, 84.4, 98.2, 100, 126%"
same,IC50,run of 06/06/2022,"8.76 µM, 8.42 µM, > 10 µM, 9.36 µM, 8.73 µM, 9.98 µM, 8.62 µM, 9.33 µM, 9.79 µM, 7.7 µM, 8.46 µM, 9.06 µM"
